Test results taken from PubChem BioAssay (Tox21).
The inconclusive results got no clear call from the source; some entries with a clear call stand among them for comparison. For part of these data: No potency is given beside an inconclusive call; the fits are too rough. The source made the active and inactive calls. Calls come from the whole dose curve; as a rule, active = well fitted cell-killing curve with a large enough effect in the repeat runs; inconclusive = weak or mixed curves, or effect the other way; inactive = no such curve, though single readings can be large or run the other way.

assay: qHTS assay to identify small molecule antagonists of the glucocorticoid receptor (GR) signaling pathway - cell viability counter screen (AID 720693); details: GR-bla HeLa viability, CellTiter-Glo luminescence, 18 h, with 5 nM dexamethasone present; series mostly up to 58.5 µM; note: nearly all actives have a fitted effect of over 55% in size
Tags give direction and shape of the fitted curve.

Q: With COc1ccc2c3c1O[C@H]1[C@H](O)CC[C@H]4[C@@H](C2)N(C)CC[C@@]341 as the molecule, how does the Potency read?
A: The Potency was “inactive”.

Q: With Nc1ccccc1C(=O)O as the molecule, how does the Potency read?
A: Its Potency is “inactive”.

Q: Which Potency does the source give for CC(C)(C)OOC(C)(C)CCC(C)(C)OOC(C)(C)C here?
A: Its Potency is “inactive”.

Q: With C=C(C)C(=O)OCC1CO1 (stereo not given) as the molecule, how does the Potency read?
A: Its Potency is “inactive”.

assay: qHTS assay for identifying genotoxic compounds that show differential cytotoxicity against isogenic chicken DT40 cell lines with known DNA damage response pathways - wild type cell line (AID 743012); details: DT40 wild type chicken cells viability, CellTiter-Glo, 40 h; series mostly up to 68.4 µM; note: nearly all actives have a fitted effect of over 60% in size; note: potency is the fitted concentration of half-maximal effect
Method in brief: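 CellTiter-Glo luminescence readout of viability in wild type DT40 cells after 40 h compound exposure at 37 C/5% CO2; 300 cells/well; reagent incubated 30 min at room temperature before reading.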

Q: For O=C1CN=C(c2ccccc2)c2cc(Cl)ccc2N1CC1CC1, which Potency is on record?
A: Its Potency is inconclusive [cytotoxic, single point].

Q: Which Potency does the source give for COc1ccc2c3c1O[C@H]1[C@H](O)CC[C@H]4[C@@H](C2)N(C)CC[C@@]341 here?
A: Its Potency is “inactive”.

Q: For OC(c1ccc(F)cc1)(c1cncnc1)c1ccccc1Cl (stereo not given), which Potency is on record?
A: Its Potency is inconclusive [cytotoxic].

Q: For COC(N)=O, which Potency is on record?
A: Its Potency is inconclusive [cytotoxic, single point].

Q: With CCCN(CCOc1c(Cl)cc(Cl)cc1Cl)C(=O)n1ccnc1 as the molecule, how does the Potency read?
A: Its Potency is inconclusive [cytotoxic, single point].

Q: Which Potency does the source give for O=S(=O)(Cl)Cl here?
A: Its Potency is “inactive”.

Q: For Clc1ccc(C(Cl)(Cl)Cl)cc1, which Potency is on record?
A: Its Potency is inconclusive [rising, full curve, poor fit].

Q: For CC(C)(O)C(Cl)(Cl)Cl, which Potency is on record?
A: Its Potency is “inactive”.

Q: For O=NN1CCNCC1, which Potency is on record?
A: Its Potency is inconclusive [single point].

Q: With C=CC(=O)NCNC(=O)C=C as the molecule, how does the Potency read?
A: Its Potency is inconclusive [rising, partial curve].

Q: Which Potency does the source give for II here?
A: The Potency was inconclusive [cytotoxic, single point].
